Experimental data from PMC12136788.
The list shows a part of the results.

B1: chr8:23117756:23117757:+_ENSG00000147457_ENST00000313219|hu_mus|FALSE|FALSE (ssRNA)
RNA: GGGAGUUCUACAGUCCGACGAUCUUCAAGUUCAGCAUCCAAGAUCCUAGGCUUAGGCACACUGUUGGUAUAAAGCGUUGUCUCCUGGGGGGUUUCGAGCAGGCUCAAAGGUUCUGUGGUGGUGUCCUGAAGGAGGAUGUCCAACAACAGAGGAUUGAGCAUCA
B2: chr8:117878989:117878990:-_ENSG00000164754_ENST00000297338|hu_hu|FALSE|FALSE (ssRNA)
RNA: GGGAGUUCUACAGUCCGACGAUCCCAGAGGCCCUCUUUUACUGAGAACAAAAUGUGCGUAGAACAUUGUUCUGGCUGGCUAUGAAAACAGAAGAAAACCUUGCUCUCCGCUGGGAGUUGGGCGGGCUGGGUGGCCCGGGGAGGCAACAGAGGAUUGAGCAUCA
B3: 125006364_125006606_7467_CDS_ENSMUSG00000014444_ENSMUST00000067252|mouse|control|control (ssRNA)
RNA: GGGAGUUCUACAGUCCGACGAUCCCCUGUGCCCACUUGCUCCCUCCGCAGCUGGAUGCGCACACCAAGGUAGUCCUCUUCCUCAUCUGGCUGCAGCUGCUUCACAGGGUUGGCUUCAGGCCCAUUGGGAGCACGAAUGUACUUCAACAGAGGAUUGAGCAUCA
B4: 12333574_12338705_554_CDS_ENSMUSG00000064127_ENSMUST00000096495|mouse|control|control (ssRNA)
RNA: GGGAGUUCUACAGUCCGACGAUCUGGCAAUAAGUCCGUCAACACCAUAAGCUCCGAGUAGGCCCGGUGGAGCAGAAAUUCGAUGAGCGUGCUAAGCCGGUAUCCAGGGCUAGCUGCCGCCGCAGCUGCCGCCGCCACAGCGGCCAACAGAGGAUUGAGCAUCA
B5: chr6:52679276:52679277:+_ENSMUSG00000004535_ENSMUST00000080723|mus_hu|FALSE|FALSE (ssRNA)
RNA: GGGAGUUCUACAGUCCGACGAUCGUAACAGAACUGAUAAAAUUCUCCAUCAUCAUUUGGAAGGUAAUAUCCUUGGAAUGCUAGUACACAAUUGACUGUUGAUCCUUCCACAUAAUGUUCAGGCAUAGGGGACCAUAAAAACGUCAACAGAGGAUUGAGCAUCA
B6: chr19:53710959:53710960:+_ENSMUSG00000024974_ENSMUST00000025930|mus_mus|FALSE|FALSE (ssRNA)
RNA: GGGAGUUCUACAGUCCGACGAUCACGGAUUUCAUCAUUCAGAGCGUCGACUCUUUUCUGAUCUUCCAGACUGAGUUGAGAAAGCAAAUCCGUUCCUAGCUCCGCUUUCAGUGACUCUCUGGUGGACUCCAUAGCAUGCAGACUCAACAGAGGAUUGAGCAUCA
B7: chr16:94915998:94915999:+_ENSMUSG00000022897_ENSMUST00000023614|mus_hu|FALSE|FALSE (ssRNA)
RNA: GGGAGUUCUACAGUCCGACGAUCUUUUGAUAUUGCUAUACUCAAGAUGAUAUCCUUUUAUUCACUGUAAACCUUUAUGAACUACCAAGUUCAAAAAAAUCAUCCACAGGCUUGACAGUUAAUUACAAAAUAAAUAUGGAUUUCCAACAGAGGAUUGAGCAUCA
B8: chr19:5716489:5716490:-_ENSMUSG00000024937_ENSMUST00000075606|mus_mus|FALSE|FALSE (ssRNA)
RNA: GGGAGUUCUACAGUCCGACGAUCUACCAUGUCCGCCGGCUCGAGCAGCCGAGACACACCCAGGGCAGCGAAGCCAUCAAAAGCCUGCUUGUUGUUCUGUUUGAUGUUGAGGGGAUCAAGGGAGAAAUAAUCGAUCUUGUCUGGCAACAGAGGAUUGAGCAUCA
B9: chr2:26769575:26769576:-_ENSMUSG00000015790_ENSMUST00000167661|mus_mus|motif|central (ssRNA)
RNA: GGGAGUUCUACAGUCCGACGAUCUGGGCUGUUCUCCGGAACAAAGGGCUUCCUGUUUUCUGUGAGCCUCACUAUGCCAACGGGGUCGGCUUCUCCCAGAACCUGGCCUUUCUGUCUGGUCUCAGGAUUCACUUUCUUCCUGGGCAACAGAGGAUUGAGCAUCA
B10: chr4:175160266:175160267:-_ENSG00000164117_ENST00000503293|hu_mus|FALSE|FALSE (ssRNA)
RNA: GGGAGUUCUACAGUCCGACGAUCAGGGGCAUGAAUAUGACGAAAAAAUUCUCUCAGUGCAUUCGGCAAGAACUGAUUUCUAAAAUUAUGCAAGGUUACAAGGUCAUCCAAGACAUCUCUCCUUUCAUCAAGAUAGAUUCUCAGCAACAGAGGAUUGAGCAUCA
B11: chr2:103616161:103616162:-_ENSMUSG00000027184_ENSMUST00000111147|mus_hu|FALSE|FALSE (ssRNA)
RNA: GGGAGUUCUACAGUCCGACGAUCCUCAUCUACCUGCUCCUUUUCACCACUGGUGAACUGUGUUUCUGCCAUGAACUGUCUAUUUACAUACUCUGUUGAUUCAACUUCACUUUGCUCAGUGUACUCUUCUGCUGGCUCAGGUUCCAACAGAGGAUUGAGCAUCA
B12: chr1:60041781:60041782:+_ENSMUSG00000041040_ENSMUST00000036540|mus_mus|FALSE|FALSE (ssRNA)
RNA: GGGAGUUCUACAGUCCGACGAUCUUAAGGAGUGAAUCUCAACUUUACAAAUUUAGUAAUGGCAAGUUUACUUUAGUUUCCUAAAAGAAAACCUCAGGAUCUCAGUUCAAUCCCAGACAGAGAAAGCUCUCCAUGGGGCCACUGCAACAGAGGAUUGAGCAUCA
B13: chr2:121050808:121050809:+_ENSG00000144118_ENST00000272519|hu_hu|FALSE|FALSE (ssRNA)
RNA: GGGAGUUCUACAGUCCGACGAUCAGCAGCUGGCUUCAUCCGUCACCUUGACACUCAUAGUAAGCAACAUCUUUCUUUAAAACUUUUCUUGUUCUUGCUGCUUUUCUUGCCAUUCUUGUCUUUGUUUUCUGACAUCUUCUUUGUCAACAGAGGAUUGAGCAUCA
B14: chr9:53370893:53370894:+_ENSMUSG00000033054_ENSMUST00000035850|mus_hu|motif|central (ssRNA)
RNA: GGGAGUUCUACAGUCCGACGAUCUGCUGAAUCAUUAGAUGGUUGUUUAGUAGAAGACAGCGAAUCUCCAAGAUGAAUUUCGGCUUGUCCAGAUACAUUUAAAUGUGAACUUUCAACAGACACAGGUAGUAUUUCACUUUGAAGCAACAGAGGAUUGAGCAUCA
B15: chr5:132203191:132203192:+_ENSG00000164405_ENST00000378667|hu_mus|motif|central (ssRNA)
RNA: GGGAGUUCUACAGUCCGACGAUCAUUCUUCCUUUUCGACUGCUCAAACUCCUGGUUGCCCCAUGUGUAGAUCAGGUAGACCACGGCAAACGGCGGCGCCACGCGCAGGAUGCGCUCGCGAGUGCGGCGCAGCACGUUGGGGAUCAACAGAGGAUUGAGCAUCA
B16: chr7:44244176:44244177:+_ENSG00000106636_ENST00000223369|hu_mus|hu_hu_hu_mus_False|58_58 (ssRNA)
RNA: GGGAGUUCUACAGUCCGACGAUCACUGUCGCUCCGGACGUAGACAUGGCAAAGAUACUCUUGUUCUUUGACAGAAGCUCUAGUGCCUUUCCCCGAGCGUUCCACAAUCAGUUGACUUGUAAAGGUCAUGAAUUCCUGCACACUCAACAGAGGAUUGAGCAUCA
B17: chr16:71807222:71807223:-_ENSG00000166747_ENST00000299980|perfect_dup|FALSE|FALSE (ssRNA)
RNA: GGGAGUUCUACAGUCCGACGAUCUCCCGCAAGAUCUCUGCACAUCUCCGAGGAGCCCAUGCAGCCGAGGGUACAAAGUGCUAGCCCCUGCACAAACUGCGUGCUAUGAUUAAGAUCAUUCUUGAUACAGUUGGUCAUGAGAAGCAACAGAGGAUUGAGCAUCA
B18: chr18:35833404:35833405:-_ENSMUSG00000024350_ENSMUST00000025208|mus_mus|FALSE|FALSE (ssRNA)
RNA: GGGAGUUCUACAGUCCGACGAUCCCUAGACAUAUGACCUAGGCCGACCACUCAUCCUCUCUGGCCAAUUCAUAAAAGGGCUAACAUACCGGUUUCACAAACUGUUAUGAGGAAUAAGUGAAAAAACAAAAUAAAACAGAACACCAACAGAGGAUUGAGCAUCA
B19: chr2:187370222:187370223:+_ENSG00000065548_ENST00000337859|hu_hu|motif|central (ssRNA)
RNA: GGGAGUUCUACAGUCCGACGAUCUUUCCUUUUCUUCCAGGCAAGAAAAGAUUCUAGAGUGAUUUUGGUAACAUUUGGACCGGGGGCAGAACGCUCUCUCUCAAUUAGAUCUUCUAAUGAAAUUUCAUCUUCUUUCUCUUCUUUCAACAGAGGAUUGAGCAUCA
B20: 85956359_85961431_155_3pUTR_ENSG00000074266_ENST00000351625|human|control|control (ssRNA)
RNA: GGGAGUUCUACAGUCCGACGAUCUUCCCCAACUUUUCCUUCCAGGUGCAUUUGGCGUGUUUGUAGGUGUAUCAGGGCGUUCAGUGUUUGUACCACUUUCUAUACUGACAGCGUCAUCAUUCUCGUCUCCAGAGAGGUCUGGAUCAACAGAGGAUUGAGCAUCA
B21: 168751867_168751987_1371_CDS_ENSMUSG00000027551_ENSMUST00000087971|mouse|control|control (ssRNA)
RNA: GGGAGUUCUACAGUCCGACGAUCGUGGCUGCGGAGCGAGUCCUCCCGCAUAAACGAGGCGUCACAGAUGUCGCAGUGGAACGUCUUCUUGGCAUCCAGCCUGGCCACCUGCCGGCUGCUCUGCCUGCCGCUCUCCUUCUUCUCCAACAGAGGAUUGAGCAUCA
B22: chr4:106721038:106721039:+_ENSMUSG00000061887_ENSMUST00000030367|mus_mus|motif|central (ssRNA)
RNA: GGGAGUUCUACAGUCCGACGAUCUUUCCUUUUUUUAAAGAAGAAAGCAAAGAGGUUGAUUGGGGUGGGGCAUAGGGCUUGCGGGAAGCUUCCAUUAAAAAAAAAAUUCCCCCAAAGAACACCCCCCACCCCGGGAAAAAAAAACAACAGAGGAUUGAGCAUCA

What follows are binders tested against T1, UNK ZnF1-3 (human, UniProt Q9C0B0 31-174) (assay: nsRBNS (natural sequence RNA bind-n-seq); RBNS binding buffer (assumed for nsRBNS): 25 mM Tris pH 7.5, 150 mM KCl, 3 mM MgCl2, 0.01% Triton X-100, 500 ug/ml BSA, 20 U/ml SUPERase-In, 4 C; UNK is unkempt and MSI1 is Musashi-1; names of the RNAs are library labels; protein concentration not given here; high values mean tight binding).
T1 sequence: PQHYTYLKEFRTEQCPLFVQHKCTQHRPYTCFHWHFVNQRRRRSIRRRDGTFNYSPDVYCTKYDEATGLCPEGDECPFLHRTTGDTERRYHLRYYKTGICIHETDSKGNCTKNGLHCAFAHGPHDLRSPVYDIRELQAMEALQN

Q: Which binding signal does the source give for B1 here?
A: Its binding signal is 1.15 enrichment R.

Q: B2 was tested. Which binding signal did it give?
A: Its binding signal is 1.4 enrichment R.

Q: B3 was tested. Which binding signal did it give?
A: The binding signal was 0.589 enrichment R.

Q: How did the binding signal turn out when B4 was run?
A: Its binding signal is 1.48 enrichment R.

Q: For B5, which binding signal is on record?
A: The binding signal was 0.87 enrichment R.

Q: For B6, which binding signal is on record?
A: Its binding signal is 0.48 enrichment R.

Q: How did the binding signal turn out when B7 was run?
A: The binding signal was 0.802 enrichment R.

Q: B8 was tested. Which binding signal did it give?
A: The binding signal was 1.45 enrichment R.

Q: How did the binding signal turn out when B9 was run?
A: The binding signal was 0.553 enrichment R.

Q: With B10 as the binder, how does the binding signal read?
A: The binding signal was 1.4 enrichment R.

Q: For B11, which binding signal is on record?
A: The binding signal was 0.428 enrichment R.

Q: How did the binding signal turn out when B12 was run?
A: Its binding signal is 0.716 enrichment R.

Q: Which binding signal does the source give for B13 here?
A: The binding signal was 0.448 enrichment R.

Q: Which binding signal does the source give for B14 here?
A: Its binding signal is 0.797 enrichment R.

Q: B15 was tested. Which binding signal did it give?
A: Its binding signal is 0.872 enrichment R.

Q: B16 was tested. Which binding signal did it give?
A: Its binding signal is 0.627 enrichment R.

Q: With B17 as the binder, how does the binding signal read?
A: The binding signal was 1.22 enrichment R.

Q: B18 was tested. Which binding signal did it give?
A: The binding signal was 0.918 enrichment R.

Q: Which binding signal does the source give for B19 here?
A: The binding signal was 0.988 enrichment R.

Q: B20 was tested. Which binding signal did it give?
A: Its binding signal is 0.45 enrichment R.

Q: B21 was tested. Which binding signal did it give?
A: Its binding signal is 0.582 enrichment R.

Q: How did the binding signal turn out when B22 was run?
A: The binding signal was 2.43 enrichment R.
